{"source": "the supplement of paper PMC10037445", "key": {"RAW-Dual [1]": {"system": "RAW-Dual", "assay": "NF-kB SEAP reporter activity, fold change vs agonist alone; higher = enhanced NF-kB activity", "method_in_brief": "(§1)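 Cytotoxic wells were those whose IncuCyte confluency was below 70% of agonist controls in both mask sets. The cells were RAW-Dual macrophages at 50,000 cells/well in DMEM on 384-well plates, dosed with 50 nL of library stock by pin tool, stimulated with a PRR agonist 1 h later, and kept at 37 °C, 5% CO2 for 20 hours. IRF and NF-κB reporter activity, as fold change over agonist-alone wells, came from supernatant read by QuantiLuc luminescence and QuantiBlue absorbance, respectively.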"}, "RAW-Dual [2]": {"system": "RAW-Dual", "assay": "NF-kB SEAP reporter activity, fold change vs agonist alone; cytotoxicity flag (confluency mask): not cytotoxic; higher = enhanced NF-kB activity", "method_in_brief": "as §1"}, "[3]": {"conditions": "library stock concentration (final ~1000-fold dilution): 10 mM, cytotoxicity flag (confluency mask): not cytotoxic, agonist: Imiquimod (TLR7) […]"}, "[4]": {"conditions": "library stock concentration (final ~1000-fold dilution): 10 mM, cytotoxicity flag (confluency mask): not cytotoxic, agonist: MPLA (TLR4) […]"}, "[5]": {"conditions": "agonist: ODN 1826 (TLR9) 0.5 ug/mL"}, "[6]": {"conditions": "agonist: Pam2CSK4 (TLR2/6) 0.1 ug/mL"}, "[7]": {"conditions": "agonist: Pam3CSK4 (TLR2/1) 0.1 ug/mL"}}, "note": "Whole data set: some 2,900 compounds, median “NF-kB SEAP reporter activity, fold change vs agonist alone” near 0.99, cut for the highest 2% near 2.6. Some of the results follow.", "data": [{"compound": "C=CC(=O)Nc1cccc(Oc2nc(Nc3ccc(N4CCN(C)CC4)cc3)nc3ccsc23)c1", "values": [{"measurement": "NF-kB SEAP reporter activity", "setting": "RAW-Dual [1]; library stock concentration (final ~1000-fold dilution): 10 mM, cytotoxicity flag (confluency mask): cytotoxic (confluency <70% of control), agonist: Imiquimod (TLR7) […]", "result": 1.41}, {"measurement": "NF-kB SEAP reporter activity", "setting": "RAW-Dual [1]; library stock concentration (final ~1000-fold dilution): 10 mM, cytotoxicity flag (confluency mask): cytotoxic (confluency <70% of control), agonist: MPLA (TLR4) […]", "result": 0.937}]}, {"compound": "O=C(Nc1cnn2ccc(N3CCCC3c3cc(F)ccc3F)nc12)N1CCC(O)C1.O=S(=O)(O)O", "note": "(stereo not given)", "values": [{"measurement": "NF-kB SEAP reporter activity", "setting": "RAW-Dual [1]; [3]", "result": 1.05}, {"measurement": "NF-kB SEAP reporter activity", "setting": "RAW-Dual [1]; [4]", "result": 0.956}]}, {"compound": "O=C(Nc1cnn2ccc(N3CCCC3c3cc(F)ccc3F)nc12)N1CCC(O)C1.O=S(=O)(O)O", "note": "(stereo not given) (library stock concentration (final ~1000-fold dilution): 10 mM)", "values": [{"measurement": "NF-kB SEAP reporter activity", "setting": "RAW-Dual [2]; agonist: LPS (TLR4) 0.1 ug/mL", "result": 0.889}, {"measurement": "NF-kB SEAP reporter activity", "setting": "RAW-Dual [2]; [5]", "result": 0.861}, {"measurement": "NF-kB SEAP reporter activity", "setting": "RAW-Dual [2]; [6]", "result": 1.03}, {"measurement": "NF-kB SEAP reporter activity", "setting": "RAW-Dual [2]; [7]", "result": 0.795}]}, {"compound": "CN(C)Cc1ccc(S(=O)(=O)n2ccc(/C=C/C(=O)NO)c2)cc1", "note": "(library stock concentration (final ~1000-fold dilution): 10 mM)", "values": [{"measurement": "NF-kB SEAP reporter activity", "setting": "RAW-Dual [2]; agonist: LPS (TLR4) 0.1 ug/mL", "result": 4.18}, {"measurement": "NF-kB SEAP reporter activity", "setting": "RAW-Dual [2]; [5]", "result": 0.95}, {"measurement": "NF-kB SEAP reporter activity", "setting": "RAW-Dual [2]; [6]", "result": 1.03}, {"measurement": "NF-kB SEAP reporter activity", "setting": "RAW-Dual [2]; [7]", "result": 0.94}]}, {"compound": "CN(C)Cc1ccc(S(=O)(=O)n2ccc(/C=C/C(=O)NO)c2)cc1", "values": [{"measurement": "NF-kB SEAP reporter activity", "setting": "RAW-Dual [1]; [3]", "result": 1.01}, {"measurement": "NF-kB SEAP reporter activity", "setting": "RAW-Dual [1]; [4]", "result": 0.905}]}, {"compound": "O=C(/C=C/c1ccc(O)c(O)c1)O[C@@H]1C[C@](O)(C(=O)O)C[C@@H](O)[C@H]1O", "note": "(library stock concentration (final ~1000-fold dilution): 10 mM)", "values": [{"measurement": "NF-kB SEAP reporter activity", "setting": "RAW-Dual [2]; agonist: LPS (TLR4) 0.1 ug/mL", "result": 0.847}, {"measurement": "NF-kB SEAP reporter activity", "setting": "RAW-Dual [2]; [5]", "result": 0.883}, {"measurement": "NF-kB SEAP reporter activity", "setting": "RAW-Dual [2]; [6]", "result": 0.901}, {"measurement": "NF-kB SEAP reporter activity", "setting": "RAW-Dual [2]; [7]", "result": 0.768}]}, {"compound": "O=C(/C=C/c1ccc(O)c(O)c1)O[C@@H]1C[C@](O)(C(=O)O)C[C@@H](O)[C@H]1O", "values": [{"measurement": "NF-kB SEAP reporter activity", "setting": "RAW-Dual [1]; [3]", "result": 0.896}, {"measurement": "NF-kB SEAP reporter activity", "setting": "RAW-Dual [1]; [4]", "result": 1.01}]}, {"compound": "C=CCc1ccccc1OCC(O)CNC(C)C.Cl", "note": "(stereo not given)", "values": [{"measurement": "NF-kB SEAP reporter activity", "setting": "RAW-Dual [1]; [3]", "result": 1.07}, {"measurement": "NF-kB SEAP reporter activity", "setting": "RAW-Dual [1]; [4]", "result": 1.23}]}, {"compound": "C=CCc1ccccc1OCC(O)CNC(C)C.Cl", "note": "(stereo not given) (library stock concentration (final ~1000-fold dilution): 10 mM)", "values": [{"measurement": "NF-kB SEAP reporter activity", "setting": "RAW-Dual [2]; agonist: LPS (TLR4) 0.1 ug/mL", "result": 1.12}, {"measurement": "NF-kB SEAP reporter activity", "setting": "RAW-Dual [2]; [5]", "result": 1}, {"measurement": "NF-kB SEAP reporter activity", "setting": "RAW-Dual [2]; [6]", "result": 0.881}, {"measurement": "NF-kB SEAP reporter activity", "setting": "RAW-Dual [2]; [7]", "result": 0.752}]}, {"compound": "Cc1ccc2nc(NC(=O)CSc3nc4c(c(=O)n3-c3ccccc3)SCC4)sc2c1", "note": "(library stock concentration (final ~1000-fold dilution): 2 mM)", "values": [{"measurement": "NF-kB SEAP reporter activity", "setting": "RAW-Dual [2]; agonist: LPS (TLR4) 0.1 ug/mL", "result": 1.21}, {"measurement": "NF-kB SEAP reporter activity", "setting": "RAW-Dual [2]; [5]", "result": 1.09}, {"measurement": "NF-kB SEAP reporter activity", "setting": "RAW-Dual [2]; [6]", "result": 1.13}, {"measurement": "NF-kB SEAP reporter activity", "setting": "RAW-Dual [2]; [7]", "result": 1.04}]}, {"compound": "Cc1ccc2nc(NC(=O)CSc3nc4c(c(=O)n3-c3ccccc3)SCC4)sc2c1", "values": [{"measurement": "NF-kB SEAP reporter activity", "setting": "RAW-Dual [1]; library stock concentration (final ~1000-fold dilution): 2 mM, cytotoxicity flag (confluency mask): not cytotoxic, agonist: Imiquimod (TLR7) […]", "result": 0.595}, {"measurement": "NF-kB SEAP reporter activity", "setting": "RAW-Dual [1]; library stock concentration (final ~1000-fold dilution): 2 mM, cytotoxicity flag (confluency mask): not cytotoxic, agonist: MPLA (TLR4) […]", "result": 1.04}]}, {"compound": "N#C/C(=C\\c1ccc(O)c(O)c1)C(=O)NCc1ccccc1", "note": "(library stock concentration (final ~1000-fold dilution): 10 mM)", "values": [{"measurement": "NF-kB SEAP reporter activity", "setting": "RAW-Dual [2]; agonist: LPS (TLR4) 0.1 ug/mL", "result": 0.947}, {"measurement": "NF-kB SEAP reporter activity", "setting": "RAW-Dual [2]; [5]", "result": 0.542}, {"measurement": "NF-kB SEAP reporter activity", "setting": "RAW-Dual [2]; [6]", "result": 0.672}, {"measurement": "NF-kB SEAP reporter activity", "setting": "RAW-Dual [2]; [7]", "result": 0.664}]}, {"compound": "N#C/C(=C\\c1ccc(O)c(O)c1)C(=O)NCc1ccccc1", "values": [{"measurement": "NF-kB SEAP reporter activity", "setting": "RAW-Dual [1]; [3]", "result": 0.824}, {"measurement": "NF-kB SEAP reporter activity", "setting": "RAW-Dual [1]; [4]", "result": 0.91}]}, {"compound": "CC(C)(Sc1cc(C(C)(C)C)c(O)c(C(C)(C)C)c1)Sc1cc(C(C)(C)C)c(OC(=O)CCC(=O)O)c(C(C)(C)C)c1", "values": [{"measurement": "NF-kB SEAP reporter activity", "setting": "RAW-Dual [1]; [3]", "result": 0.522}, {"measurement": "NF-kB SEAP reporter activity", "setting": "RAW-Dual [1]; [4]", "result": 0.926}]}, {"compound": "CC(C)(Sc1cc(C(C)(C)C)c(O)c(C(C)(C)C)c1)Sc1cc(C(C)(C)C)c(OC(=O)CCC(=O)O)c(C(C)(C)C)c1", "note": "(library stock concentration (final ~1000-fold dilution): 10 mM)", "values": [{"measurement": "NF-kB SEAP reporter activity", "setting": "RAW-Dual [2]; agonist: LPS (TLR4) 0.1 ug/mL", "result": 1.16}, {"measurement": "NF-kB SEAP reporter activity", "setting": "RAW-Dual [2]; [5]", "result": 0.568}, {"measurement": "NF-kB SEAP reporter activity", "setting": "RAW-Dual [2]; [6]", "result": 0.26}, {"measurement": "NF-kB SEAP reporter activity", "setting": "RAW-Dual [2]; [7]", "result": 0.382}]}, {"compound": "Cn1cc(-c2ccc3c(c2)CCN3C(=O)Cc2cccc(C(F)(F)F)c2)c2c(N)ncnc21", "note": "(library stock concentration (final ~1000-fold dilution): 10 mM)", "values": [{"measurement": "NF-kB SEAP reporter activity", "setting": "RAW-Dual [2]; agonist: LPS (TLR4) 0.1 ug/mL", "result": 0.53}, {"measurement": "NF-kB SEAP reporter activity", "setting": "RAW-Dual [2]; [5]", "result": 0.969}, {"measurement": "NF-kB SEAP reporter activity", "setting": "RAW-Dual [2]; [6]", "result": 0.377}, {"measurement": "NF-kB SEAP reporter activity", "setting": "RAW-Dual [2]; [7]", "result": 0.345}]}, {"compound": "Cn1cc(-c2ccc3c(c2)CCN3C(=O)Cc2cccc(C(F)(F)F)c2)c2c(N)ncnc21", "values": [{"measurement": "NF-kB SEAP reporter activity", "setting": "RAW-Dual [1]; [3]", "result": 0.247}, {"measurement": "NF-kB SEAP reporter activity", "setting": "RAW-Dual [1]; [4]", "result": 0.909}]}]}
